Source: PubChem BioAssay AID493208 (National Center for Advancing Translational Sciences (NCATS), 2011)
Screen size: about 44,000 compounds; about 340 (0.77%) were called active. Roughly 5% stayed inconclusive and do not appear here. The call rests on the fitted dose curve; in most records, active means well fitted inhibition curve with a large enough effect; inconclusive means small, poorly fitted or top-dose-only effect; inactive means flat fitted curve, though single readings scatter. The list shows a part of the results.

Test: Acumen qHTS Assay for Inhibitors of the mTORC1 Signaling Pathway in MEF (Tsc2-/-, p53-/-) Cells: Sytravon;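 further: plate controls were DMSO for no effect and rapamycin for full effect; nearly all actives have a fitted effect of over 50% in size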
Settings: phospho-rpS6 immunofluorescence/PI, 24 h; series mostly up to 38.3 µM; activity change, negative = inhibition: at the top concentration
Outline: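 Compounds act on Tsc2-/-, p53-/- fibroblasts carrying an empty vector for 24 h before fixation and dual staining for phospho-S6 and DNA (propidium iodide). Values are percentages of cells above a rapamycin-defined pS6/PI threshold.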

Activity change, negative = inhibition, inactive:
CCOC(=O)c1cc(-c2ccc(C)cc2)n(CC(=O)Nc2ccc(OC)cc2OC)c1C -7.66%
Cc1ccc(S(=O)(=O)N(CC(=O)NCCSc2ccc(Cl)cc2)c2cccc(Cl)c2)cc1 0.214%
CCN1CCN(C(c2ccc(F)cc2)c2sc3nc(-c4ccco4)nn3c2O)CC1 (centres undefined) -5.85%
Cc1ccc(S(=O)(=O)CCC(=O)N2CCN(c3nc4c(C)c(C)ccc4s3)CC2)cc1 2.3%
Cc1ccc(OCC(=O)Nc2nonc2-c2ccc(Br)cc2)cc1 -0.998%
CCC(C)NC(=O)c1cnn(-c2cccc(F)c2)c1-n1cccc1 (centres undefined) 8.53%
CC(C)OCCCNC(=O)CN1C(=O)c2ccccc2Sc2ncccc21 -0.619%
O=C(Nc1cccc2c1CCCC2)N1CCOc2ccc(Cl)cc21 0.351%
CCCC(=O)Nc1ccc2nc(SCC(=O)N3CCOCC3)sc2c1 -13.3%
N#C/C(=C\c1ccc(-c2cccc(Cl)c2)o1)C(=O)Nc1cccc(C(F)(F)F)c1 -15.7%
Cc1oc2ncnc(N3CCOCC3)c2c1C(=O)NCc1ccc(Cl)cc1 -3.81%
Fc1ccc(N2CCN(c3ncnc4[nH]ncc34)CC2)cc1 -1.09%
CCc1c(C)nc2nncn2c1Nc1ccc(Cl)cc1 -12.4%
COc1ccc(-n2c(=O)c3c4c(sc3n(Cc3ccc(C)cc3C)c2=O)CCC4)c(OC)c1 -5.5%
CCc1nc2ccccc2n2c(-c3ccccc3)c3c(=O)n(C)c(=O)n(C)c3c12 -14.5%
CCC(C(=O)Nc1ccc(C(C)=O)cc1)n1cnc2nc3c(cc2c1=O)CCCC3 (centres undefined) -6.73%
CCOc1ccccc1NS(=O)(=O)c1ccc2c(c1)CC(C)N2C(=O)C1CC1 (centres undefined) -18.5%
COc1ccc(OC)c(CNC(=O)Cn2ncc3c([nH]c4ccc(C)cc43)c2=O)c1 2.87%
COc1cc(C(CC(=O)NCc2ccccc2)N2Cc3ccccc3C2=O)cc(OC)c1OC (centres undefined) -11.8%
O=C(NCCc1csc(-c2ccc(F)cc2)n1)c1ccco1 2.03%
CC1=C(C(=O)Nc2cc(Cl)ccc2C)C2(CCCCC2)OC1=O -0.504%
Cc1cc(C)n2nc(CNC(=O)c3ccccc3Cl)nc2n1 -6.62%
Cc1cc(C)cc(NC(=O)CCc2nnc3n(C)c(=O)c4sccc4n23)c1 -7.34%
CCSc1ccc(C(=O)Nc2ccc(-c3nc4ccc(C)cc4s3)cc2)cc1 -0.351%
COC(=O)c1c(SC)nc2ccccc2c1OCc1ccccc1Cl 3.67%
CCOc1ccc(NC(=O)C2CCN(c3nc4ccccc4[nH]3)CC2)cc1 -7.16%
COC(=O)C1=C(C)N=C2SCCC(=O)N2C1c1ccc(OCc2ccccc2)c(OC)c1 (centres undefined) -0.728%
CCOC(=O)c1c(C)[nH]c(C)c1S(=O)(=O)N(C)CC(=O)N1CCN(c2ccc(Cl)cc2)CC1 2.9%
CCOc1ccc(CN2CCc3nc(N4CCN(c5ncccn5)CC4)ncc3C2)cc1OC 0%
CCC(CC)C(=O)OCc1cc(=O)n2nc(C3CCCCC3)sc2n1 -7.53%
Cc1ccc(-c2c(C(=O)N3CCN(c4cccc(C)c4)C(C)C3)oc(=O)c3ccccc23)cc1 (centres undefined) 4.21%
CC(C)(C)OC(=O)N1CCC(c2c(C(=O)NCCc3ccsc3)cnn2-c2ccccc2Cl)CC1 -3.04%
CCOc1ccc(N2C(=O)CS(=O)(=O)C23C(=O)N(Cc2cccc(Cl)c2)c2ccccc23)cc1 (centres undefined) 2.26%
COc1ccc(N2CC(NC(=O)COc3ccc(F)cc3)CC2=O)cc1OC (centres undefined) 0.112%
CC(C)(C)OC(=O)N1CCC(c2c(C(=O)Nc3ccc4c(c3)OCCO4)cnn2-c2ccc(F)cc2F)CC1 -21%
Cn1cnc2c(=O)oc3ccc(S(=O)(=O)N4CCN(c5cccc(C(F)(F)F)c5)CC4)cc3c21 0.225%
CCOC(=O)C(=O)NCC(c1cccnc1)N1CCN(c2ccccc2)CC1 (centres undefined) 9.97%
CCOC(=O)CC(NC(=O)c1cc2cc(Br)cc(OC)c2oc1=O)c1ccc(OC)cc1 (centres undefined) 0.503%
Cc1ccc(-c2nc3c(c(SCC(=O)N(C)c4ccccc4)n2)Cc2c(CO)cnc(C)c2O3)cc1 -0.415%
O=C(Nc1cccc(OCc2cc(=O)n3ccccc3n2)c1)c1ccccc1Br -0.0609%
COc1ccc(S(=O)(=O)NCCc2nnc3ccc(SCC(=O)Nc4cc(C)cc(C)c4)nn23)cc1 3.45%
Cn1c(=O)n(C)c2cc(N3CCOCC3)c(NC(=O)c3ccc(Cl)cc3)cc21 7.82%
O=C(NCc1ccc2c(c1)CCN2C(=O)c1ccncc1)c1ccccc1Cl -4.05%
O=C1C(=O)N(C2CCN(S(=O)(=O)c3ccccc3)CC2)CCN1Cc1ccccc1 3.01%
COc1cccc(N2CCN(C(=O)C3CCCN(S(=O)(=O)c4ccc5c(c4)oc(=O)n5C)C3)CC2)c1 (centres undefined) -1.75%
COc1ccccc1CCNC(=O)C(=O)NCC(c1ccco1)S(=O)(=O)c1ccc(F)cc1 (centres undefined) -0.579%
Cn1c(=O)c2c(nc(CN3CCN(c4ccccc4F)CC3)n2Cc2ccccc2F)n(C)c1=O -1.39%
Cn1c2ccccc2c2c(C(=O)N3CCN(c4cccc(Cl)c4)CC3)cn(C3CCCCC3)c(=O)c21 -8.13%
CCSc1ncc(Cl)c(C(=O)Nc2ccc(S(=O)(=O)Nc3ncccn3)cc2)n1 2.37%
COc1cccc(CNC(=O)CCCn2ncn3c(cc4occc43)c2=O)c1OC -3.9%
COC(=O)CN1C(=O)CSc2ccc(S(=O)(=O)Nc3cccc(C)c3)cc21 -0.942%
Cc1cccc(C(=O)Nc2nc3nc(-c4ccccc4)cc(=O)n3[nH]2)c1 0.564%
COc1cc(-c2nc(-c3ccc4c(c3)[nH]c(=O)n4C)no2)cc(OC)c1OC -2.24%
COc1ccc(-n2c(/C=C/c3cccc(C(F)(F)F)c3)nc3ccccc3c2=O)cc1Cl 9%
CCOc1ccccc1NC(=O)C1CCN(S(=O)(=O)c2ccc3[nH]c(=O)ccc3c2)CC1 -10.3%
CCOc1ccc(CCNC(=O)C2CCN(Cc3nc(-c4ccc(OC)c(OC)c4)oc3C)CC2)cc1OCC -8.9%
Cc1ccc(S(=O)(=O)N2CCN(Cc3cc(Br)ccc3O)CC2)cc1 3.25%
Cc1ccn2c(=O)cc(COc3ccc(NC(=O)COc4ccccc4)cc3)nc2c1 5.72%
Cn1cc(S(=O)(=O)N2CCCCCC2)cc1C(=O)N1CCN(c2cccc(C(F)(F)F)c2)CC1 9.33%
CCC(=O)N1CCc2cc(Br)cc(S(=O)(=O)N3CCCC(C(=O)NCc4ccc(F)cc4)C3)c21 (centres undefined) -9.16%
N#Cc1ccccc1NC(=O)C(=O)NCCc1csc(-c2ccc(C(F)(F)F)cc2)n1 -0.0889%
CCc1ccc(NC(=O)COC(=O)CCCC2=NS(=O)(=O)c3ccccc3N2)cc1 -0.889%
O=C1CSC2(C(=O)N(Cc3ccccc3)c3ccccc32)N1c1cccc(F)c1 (centres undefined) 0%
Cc1ccc2nc(COc3ccccc3NC(=O)c3ccccc3C)cc(=O)n2c1 4.47%
COc1ccc(-c2nnc(SCC(=O)Nc3cc(OC)ccc3OC)nc2-c2ccc(OC)cc2)cc1 -10.6%
CCc1cccc(C)c1NC(=O)Cn1c(=O)n(-c2ccc(C)cc2)c(=O)c2c1cnn2C -1.99%
COc1ccc(CCn2c(=O)c3cccnc3n(CC(=O)Nc3c(C)cccc3C)c2=O)cc1OC -8.26%
COc1ccc(OC)c(NC(=O)c2ccc3c(SCC(=O)O)c4c(nc3c2)CCCC4)c1 -5.77%
Cc1cccc(-c2noc(-c3ccc(NCc4ccco4)c([N+](=O)[O-])c3)n2)c1 -12.6%
O=C(c1ccco1)N1CCN(c2nc3c(F)cc(F)cc3s2)CC1 -1.55%
COc1cccc(-c2ccc(-c3noc(-c4ccccc4Br)n3)c(OC)n2)c1 12.6%
CCC(=O)N1c2ccccc2CC1C(=O)NCc1cccc(OC)c1OC (centres undefined) 4.06%
COc1cc(OC)cc(C(=O)Nc2cc(-c3nc4ccccc4[nH]3)ccc2C)c1 -0.294%
COC(=O)c1c(SC)nc2ccccc2c1OCc1ccc(Br)cc1 1.04%
CCOC(=O)C1CCCN(c2nc3c(S(=O)(=O)c4ccc(Br)cc4)nnn3c3ccsc23)C1 (centres undefined) -21%
Cc1ccccc1CNC(=O)c1nn(-c2ccccc2F)nc1CO -3.08%
CCn1nc(-c2ccccc2)c(-c2ccccc2)c(C(=O)Nc2ccc(S(N)(=O)=O)cc2)c1=O 1.25%
COc1cccc2c1Oc1ncccc1N(C(=O)CCC(=O)NCCC(C)C)C2 -0.992%
COc1ccc(C(=O)Nc2ccc(-c3nnc4n3CCCCC4)cc2)cc1 1.08%
O=c1c2sccc2n(Cc2cc(=O)n3ccccc3n2)c(=O)n1-c1cc(F)ccc1F 2.52%
Cc1cc(C)c(NC(=O)CSc2nc3ccccc3c3nc(CCn4cncc4C)nn23)c(C)c1 -15.8%
O=S(=O)(c1ccc(Cl)cc1)c1nc(-c2ccccc2Br)oc1NCc1ccccc1 -0.165%
COc1ccc(CCNC(=O)CSc2nc3nc(C)c(Cc4ccc(C)cc4)c(C)n3n2)cc1OC 2.12%
Cc1ccc(C)c(OCCn2c(C3CC(=O)N(Cc4ccc(F)cc4)C3)nc3ccccc32)c1 (centres undefined) 0.756%
CCN1CCN(C(=O)c2ccc3c(c2)N(Cc2cccc(Cl)c2)C(=O)c2ccccc2S3=O)CC1 (centres undefined) -0.649%
CCOc1ccc2nc(N3CCN(C(=O)c4ccc(S(=O)(=O)CC)cc4)CC3)sc2c1 -5.4%
Cc1ccc(/C=C/C(=O)Nc2nc(-c3cccs3)ns2)cc1 -9.14%
COc1ccc(Cn2c(=O)[nH]c3cc(C(=O)NCCC(C)C)ccc3c2=O)cc1 -0.37%
COc1ccc(CNC(=O)CS(=O)Cc2nc(-c3ccc(OC)c(OC)c3)oc2C)cc1 (centres undefined) 2.06%
Cc1ccc(N(CC(=O)Nc2cccc(Cl)c2C)S(=O)(=O)c2c(C)noc2C)cc1 -1.33%
COC(=O)c1ccc(NC(=O)CN(C)S(=O)(=O)c2ccc(Br)s2)cc1 -5.55%
Cc1nn2c(C)c(C(=O)NCc3ccc(OC(C)C)cc3)cnc2c1-c1ccc(F)cc1 -1.23%
COc1ccc(Cn2ccnc2SCC(=O)Nc2nnc(C)s2)cc1 -14.3%
CCN(CCCNC(=O)c1nn(-c2ccc(C)cc2)c(=O)c2c1c1ccccc1n2C)c1cccc(C)c1 0.657%
